# Test results from the RNAGym collection of RNA variant scans (doi:10.1093/nar/gkz1192).
# Read counts are not given, so values of variants with three or more changes are uncertain.
# B1: CPEB3 Ribozyme (parent)
# chain: UAACAGGGGGCCACAGCAGAAGCGUUCACGUCGCAGCCCCUGUCAGAUUCUGGUGAAUCUGCGAAUUCUGCUGUAUAUCUC
# Variants of: B1
# Assay: self-cleavage, relative activity (ratio to wild type); higher = more cleavage; in vitro, sequencing
# How it was run: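 Libraries of CPEB3 self-cleaving ribozyme mutants came from rounds of error-prone PCR and carried barcodes, which DNA sequencing matched to variants. In vitro transcription used T7 RNA polymerase at 37°C for 5 hours, with a further 15 min in DNase I before EDTA stopped the reaction; the ribozymes cleaved during both steps. The RNA was reverse transcribed with template switching and sequenced on Illumina. Relative activity is the cleaved/total read fraction of a variant divided by that of the unmutated ribozyme, averaged over three batches with at least 5 reads.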
row,Variant,self-cleavage
1,UAACAGGGGGCCACAGCAGAAGCGUUCACGUCGCAGCCCCUGUCAGAUUUUGGCGAAUCUGCGAAUUCUGCAGUAUAUCUC,0.9
2,UAACAGGGGGCCACAGCAGAAGCGUUCACGUCGCAGCCCCUGUCAGAUUCAGGUGGAUCUACGAAUUCUGCUGUAUAUCUC,0.63
3,UAACAGGGGGCCACAGCAGAAGCGUUCACGUCGCAGCCCCUGUCAGAUUCAGGUGGAUCUGCGAAUACUGCUGUAUAUCUC,0.33
4,UAACAGGGGGCCACAGCAGAAGCGUUCACGUCGCAGCCCCUGUCAGAUUCAGGUGUAUCUGCGAAUUCUGCUGUAUAUCCC,0.41
5,UAACAGGGGGCCACAGCAGAAGCGUUCACGUCGCAGCCCCUGUCAGAUUCAGGUGACUCUGCGAGUUCCGCUGUAUAUCUC,0.59
6,UAACAGGGGGCCACAGCAGAAGCGUUCACGUCGCAGCCCCUGUCAGAUUCAGGUGAGUCCGCGAAUUCUGCCGUAUAUCUC,0.43
7,UAACAGGGGGCCACAGCAGAAGCGUUCACGUCGCAGCCCCUGUCAGAUUCAGGUGAAUCUGCGGAUCCUGCUGUAUACCUC,0.44
8,UAACAGGGGGCCACAGCAGAAGCGUUCACGUCGCAGCCCCUGUCAGAUUCAGGUGAAUCUAUGAAUUCUGCUGUAUAUCUC,0.36
9,UAACAGGGGGCCACAGCAGAAGCGUUCACGUCGCAGCCCCUGUCAGAUUCAGGCGAAUCUGCGAAUUAUGCUGUAUAUCUC,0.2
10,UAACAGGGGGCCACAGCAGAAGCGUUCACGUCGCAGCCCCUGUCAGAUUCAGGUGAACCUGCGCAUUCUGCUGUAUAUCUC,0.19
11,UAACAGGGGGCCACAGCAGAAGCGUUCACGUCGCAGCCCCUGUCAGAUUCAGGUGAAUCAGCGAAUUUUGCUGUAUAUCUC,0.29
12,UAACAGGGGGCCACAGCAGAAGCGUUCACGUCGCAGCCCCUGUCAGAUUCAGGUGAAUCCGCGAACUCUGCUGUAUAUCUC,0.39
13,UAACAGGGGGCCACAGCAGAAGCGUUCACGUCGCAGCCCCUGUCAGAUUCAGGUGAAUCCGCGAAUUCCGCUGUAUAUCUC,0.34
14,UAACAGGGGGCCACAGCAGAAGCGUUCACGUCGCAGCCCCUGUCAGAUUCAGGUGAAUCCGCGAAUUCUGCUGUAUAUCAC,0.79
15,UAACAGGGGGCCACAGCAGAAGCGUUCACGUCGCAGCCCCUGUCAGAUUCAGGUGAAUCUGCGAAUACUGCAGUAUAUCUC,0.56
16,UAACAGGGGGCCACAGCAGAAGCGUUCACGUCGCAGCCCCUGUCAGAUUCAGGUGAAUCUGCGAAUUCUGCUGGAUAUACC,1.3
17,UAACAGGGGGCCACAGCAGAAGCGUUCACGUCGCAGCCCCUGUCAGAUUCCGGUGGAUCUGCGAAUUCUGCUGUAUGUCUC,0.88

row,Variant,self-cleavage
1,UAACAGGGGGCCACAGCAGAAGCGUUCACGUCGCAGCCCCUGUCAGAUUCCGGUGGAUCUGCGAAUCCUGCUGUAUAUCUC,0.24
2,UAACAGGGGGCCACAGCAGAAGCGUUCACGUCGCAGCCCCUGUCAGAUUCCGGUGAGUCUGCGAAUUCUGCUGUAUAUCUA,1.19
3,UAACAGGGGGCCACAGCAGAAGCGUUCACGUCGCAGCCCCUGUCAGAUUCCGGUGAGUCUGCGAAUUCUGCAGUAUAUCUC,0.28
4,UAACAGGGGGCCACAGCAGAAGCGUUCACGUCGCAGCCCCUGUCAGAUUCCGGUGAAUCUGCGGAUUCUGCUGUAUAACUC,0.86
5,UAACAGGGGGCCACAGCAGAAGCGUUCACGUCGCAGCCCCUGUCAGAUUCCGGUGAAUCUGCGUAUUCCGCUGUAUAUCUC,0.47
6,UAACAGGGGGCCACAGCAGAAGCGUUCACGUCGCAGCCCCUGUCAGAUUCCGGUGAAUCUGCGAGUUCUGUUGUAUACCUC,0.32
7,UAACAGGGGGCCACAGCAGAAGCGUUCACGUCGCAGCCCCUGUCAGAUUCCUGUUAAUCUGCCAAUUCUGCUGUAUAUCUC,0.32
8,UAACAGGGGGCCACAGCAGAAGCGUUCACGUCGCAGCCCCUGUCAGAUUCCUGAGAAUCUGCGAAUUCUGCUGUAUAUCUC,1.03
9,UAACAGGGGGCCACAGCAGAAGCGUUCACGUCGCAGCCCCUGUCAGAUUCCGGUGAAUCUGCUUAUUCUGCAGUAUUUCUC,0.65
10,UAACAGGGGGCCACAGCAGAAGCGUUCACGUCGCAGCCCCUGUCAGAUUCCGGCGAAUCUGCGGAUUCUGCUGUACACCUC,0.75
11,UAACAGGGGGCCACAGCAGAAGCGUUCACGUCGCAGCCCCUGUCAGAUUCCGGCGAAUCUGCGAAUUCUGCUGCAUAUCUC,1.24
12,UAACAGGGGGCCACAGCAGAAGCGUUCACGUCGCAGCCCCUGUCAGAUUCCGGUGAACCUGCGUAUUCUGCUGUAUAUCUC,0.29
13,UAACAGGGGGCCACAGCAGAAGCGUUCACGUCGCAGCCCCUGUCAGAUUCCGGUGAAUCAGCGAAUUCGGCUGUAUAUCUC,0.44
14,UAACAGGGGGCCACAGCAGAAGCGUUCACGUCGCAGCCCCUGUCAGAUUCCGGUGAAUCUGCGAACCCUGCUGUAUACCUC,0.55
15,UAACAGGGGGCCACAGCAGAAGCGUUCACGUCGCAGCCCCUGUCAGAUUCCGGUGAAUCUGCGAAGACUGCCGUAUAUCUC,0.34
16,UAACAGGGGGCCACAGCAGAAGCGUUCACGUCGCAGCCCCUGUCAGAUUCCGGUGAAUCUGCGAAUCCUGCAGUAUAUCUC,0.48
17,UAACAGGGGGCCACAGCAGAAGCGUUCACGUCGCAGCCCCUGUCAGAUUCCGGUGAAUCUGCGAAUUCAGCUGUAAAUCUC,0.61
